A collection of fitness landscapes (doi:10.1016/j.celrep.2020.107928)
In all, about 81,000 sequences were measured (“one-hybrid fitness for binding parS DNA”: median about -0.17, highest 2% from about 0.51 on). Some of the results follow.

B1: Caulobacter ParB omega fusion; a variant is named by its letters at X, in order, B8GW30 (parent)
chain: MESVVVGEPGMSEGRRGLGRGLSALLGEVDAAPAQAPGEQLGGSREAPIEILQRNPDQPRRTFREEDLEDLSNSIREKGVLQPILVRPSPDTAGEYQIVAGERAWRAAQRAGLKTVPIMVRELDDLAVLEIGIIENVQRADLNVLEEALSYKVLMEKFERTQENIAQTIGKSXSHVANXMRLLXLPDEVQSYLVSGELTAXHARAIAAAADPVALAKQIIEGGLSVRETEALARKAPNLSAGKSKGGRPPRVKDTDTQALESDLSSVLGLDVSIDHRGSTGTLTITYATLEQLDDLCNRLTRGI

Variants of: B1
Experiment: one-hybrid fitness for binding parS DNA (scaled: cognate 1, non-cognate 0); higher = stronger binding
Settings: with parS DNA site
Summary of the method: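 Fitness is the rescaled log change in variant-to-wild-type read ratio, measured by Illumina sequencing of plasmids before and after bacterial one-hybrid selection. The scale puts cognate at 1 and non-cognate at 0. Selection of Caulobacter ParB libraries, four specificity codons randomised, took place in E. coli USO with a HIS3 reporter, site 19 bp from the promoter, over 48 hours at 37°C on M9-minus-histidine with 0.1 mM IPTG and 5 mM 3-AT.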

one-hybrid fitness for binding parS DNA, ≤ 0.2:
KYKW
EPKT
QIGV
QFSG
WRFT
CMMS
NKWT
KHES
TFGE
FMGS
NMRF
APGF
HSIC
TTSS
AVMM
YINS
MDRM
RRFR
GKLC
QATI
TTDV
HPAN
HLQR
CYNL
IKSK
VCES
WRNM
CNHN
IDLF
QVNL
GIYS
ITSN
QSWF
HIKI
ANNT
PQYD
QSGS
LAIW
NYNV
QRDF
GSQR
CGRG
HKPS
RLSP
ASVV
WFWG
SNSR
PWWC
QIHG
MQSA
RFRQ
KTGS
RWWF
YTDE
PDVA
VRIS
TWER
GEDT
HGPE
NYYT
SDSK
VYPM
SAME
HDSE
YAAP
QSQP
RKSE
NSAK
TAWA
WSYR
QMQC
HLRA
YTVY
CFYG
EYIG
GMES
AVAR
NRYK
VSSS
ILQF
TGET
YADR
GVGV
SYGK
KDMM
LMTM
GTDD
CTTY
GQWY
WSVG
EMMI
HYES
ENQT
TISM
QRRC
LMDR
YKFS
PHRL
GRHC
CWDS
VQSA
QTEH
ALHY
AIPR
WSAG
ISTH
FLAS
STRL
VIRS
KHAA
QDSR
QLCK
AAVN
MNAV
LKNG
APKY
RHWM
AFCG
MLNC
NAVT
QRLC
CGSI
PGFD
ATRY
TQWY
QKMR
PTAI
DNPA
QNLA
LERL
VSHN
NNQT
MMLT
RPVL
RKEI
LCRC
SKNT
MPPN
QPCE
PHDC
MHQS
DHRR
AKPR
KIHN
ESRS
CRRM
PKIL
LALE
VSDK
AWHT
AAPY
QLND
FKSR
LSWK
WFPY
MHPY
HALT
VRKV
SSHA
RPPG
HSEI
SVPA
IAPR
LYGV
AGHK
LKTD
TDPW
HARV
MSRI
VPLL
SVSY
WIQL
ERHS
KRVM
WMWS
VKSV
GHGG
IANS
WPRF
RQGL
YPAR
MSKT
TEMY
ISLS
PFLW
CAPS
ARQR
YMTT
PYAN
HLYP
LRTV
QYMF
YVNL
VDWD
NDAR
MHVC
SKSQ
ARVL
YHKF
HDSN
IRNP
RFEP
VDNV
QFRP
TIRT
YAVE
TEAP
SDRT
GRNR
ACPN
KSEG
FMAM
LWPN
SVNN
NMLC
NHCG
RAID
KCYC
THMY
LLRW
AAHN
HSFT
PILF
ANRY
NKSR
HVFT
SVRV
VADK
LGLN
LYQY
EAPE
QGDN
VPAR
HGFL
FWTP
LLSK
IQVR
HMTE
DRRA
DNDS
VPCK
QHMM
HNLH
GFRD
FVGE
DSYV
VPLY
ITHM
DFYG
RSSP
KIYT
RREW
LGPF
REIW
TYNM
PICM
QYFE
MFHC
GYYC
KLAW
TKNA
AEAL
QHAD
PDHW
RGQK
ISRF
QARP
DDIS
ENLR
PSSY
MPKP
GARF
KYLT
PPHD
YETS
GYNV
TEYR
RAEP
TRIV
RRWR
TVSG
RTHD
EDEG
FANT
VLPA
QYTI
DHKC
KHRM
SIDT
LLLR
GHDY
TAWT
QPVG
HLES
QCGY
YGNR
GVFT

one-hybrid fitness for binding parS DNA, 0.29:
KAEI

one-hybrid fitness for binding parS DNA, 0.657:
RFIC

one-hybrid fitness for binding parS DNA, 0.916:
RQST

one-hybrid fitness for binding parS DNA, 0.967:
RHDS

one-hybrid fitness for binding parS DNA, 0.679:
RRFC

one-hybrid fitness for binding parS DNA, 0.829:
RQEC

one-hybrid fitness for binding parS DNA, 0.811:
RKSS

one-hybrid fitness for binding parS DNA, 0.947:
RQNC

one-hybrid fitness for binding parS DNA, 0.318:
RQYM
